Drawing on publication PMC12136788, this text covers binding signal for 22 molecules.

First the molecules themselves.
T1: UNK ZnF1-6 (called full-length) (human, UniProt Q9C0B0 30-357)
T1 sequence: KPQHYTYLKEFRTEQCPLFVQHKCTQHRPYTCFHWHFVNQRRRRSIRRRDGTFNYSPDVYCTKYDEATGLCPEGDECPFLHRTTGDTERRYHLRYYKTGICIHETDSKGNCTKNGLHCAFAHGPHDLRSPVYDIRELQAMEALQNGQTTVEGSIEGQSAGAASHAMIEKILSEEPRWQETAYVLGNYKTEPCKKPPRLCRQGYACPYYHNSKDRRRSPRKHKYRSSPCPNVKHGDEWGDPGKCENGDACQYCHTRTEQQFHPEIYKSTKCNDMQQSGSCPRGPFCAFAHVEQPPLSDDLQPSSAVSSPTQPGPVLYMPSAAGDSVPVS

B1: chr1:24654915:24655033:+|CDS|ENSG00000133226|unk|total|mutant (ssRNA)
RNA: GGGAGUUCUACAGUCCGACGAUCUCACGGUCACCACCAAAGAAGCCUCCCAAGAGGACAUCCAGCCCCCCUCGGAAAACUCGCCGGUUAUCUCCUUCAGCAAGUCCUCCAAGGCGAAGGCACAGGCCAUCACCUCCUGCAACUCAACAGAGGAUUGAGCAUCA
B2: chr17:69153304:69154009:-|three_prime_utr|ENSG00000154263|control|control|control (ssRNA)
RNA: GGGAGUUCUACAGUCCGACGAUCUGGGCAAAGAAGAUGCUGCUCUCAGUAUUUCACGGUACAGAGAGAAGUCUCACAAUUUGUAGCAGGAGGAAGGGGAAAAUAUGUCAUUUCUUCAUUAUAUAUUAAAAGGAAAUUAUAAACCAACAGAGGAUUGAGCAUCA
B3: ENSG00000167528:stop:overlap|stop_codon|ENSG00000167528|stop_codon|NA|stop_codon (ssRNA)
RNA: GGGAGUUCUACAGUCCGACGAUCCCCAGGACUUAGAGGAGAGGGACAUUCUGAGGGUCACAUAUACAGGUAAGAACCUAGAAUAGGCUUUCAGCCACUUCCUUCACAGUUCGGGACAUCAUCAUUCCAUGUUCGUUUAAUCCCCAACAGAGGAUUGAGCAUCA
B4: chr3:10101824:10101929:+|3pUTR|ENSG00000144554|unk|total|mutant (ssRNA)
RNA: GGGAGUUCUACAGUCCGACGAUCAAAAUCUCUGAGUCAUGAUUCUGGACUUUGGGAGCCCGUUUUGAAACUCUGAUUUAUUGCCGAACUCCGGCUUGUACCAAUUUUACAAAUAAAUUCUGUUCUAAGUUCUGCCUCAGUUGCCAACAGAGGAUUGAGCAUCA
B5: chr17:48061271:48061372:+|3pUTR|ENSG00000082641|msi1|FALSE|unique (ssRNA)
RNA: GGGAGUUCUACAGUCCGACGAUCAGUGAAAUGGGGGUGGGGGGAAGCACUGAUUCCCAGUUAGGGGGUGCCUAACUGAGCAGUAGGGAUAGAAGGUGUGAACCUGGGAGUGCUUUUAUAAAUUAUUUUCCUUGUAGAUUUUAUCAACAGAGGAUUGAGCAUCA
B6: chr1:205810550:205810651:-|5pUTR|ENSG00000133065|unk|total|mutant (ssRNA)
RNA: GGGAGUUCUACAGUCCGACGAUCUUGCGGCUUCAGUGCUUGAUGGGGCUGCCUGUUGGUGGAUCAGUUUUUGCAGUGCCUGGCCGGAGUGGAGAGCCGUGGGAAGAGGUCCUGCGGCGCCCAAGCCUGGGUUCACCCCAAGACCAACAGAGGAUUGAGCAUCA
B7: chr8:58579689:58579790:+|CDS|ENSG00000137575|msi1|FALSE|bound_elsewhere (ssRNA)
RNA: GGGAGUUCUACAGUCCGACGAUCAGCACUGGACAUGUUGGUUUUAUCUUUAAAAAUGGAAAAAUAACAUCCAUAGUGAAAGAUAGCUCUGCAGCCAGAAAUGGUCUUCUCACGGAACAUAACAUCUGUGAAAUCAAUGGACAGCAACAGAGGAUUGAGCAUCA
B8: chr1:74475294:74475810:-|CDS|ENSG00000162621|control|control|control (ssRNA)
RNA: GGGAGUUCUACAGUCCGACGAUCUUUAGAAACCUGAAAAAGAAAGACCGUGGGGUAGGCAGCACUUUAUUUUGCCAGGAUGGUAGAUUGCUGCAUUCGGAAUGUUCAGAGCCUCCUGGAAAUAUGAGAGCUUUUAAUGAAGCACAACAGAGGAUUGAGCAUCA
B9: chr7:130192614:130192715:-|CDS|ENSG00000146842|msi1|total|mutant (ssRNA)
RNA: GGGAGUUCUACAGUCCGACGAUCUACAUGACCGACCUACGAACUUUGGAUACUUUUCUCAGAAGUGAAGAGGAGAAACAGCACCGGGUUAAGCUGGGUACAUAUAUAUUUCUGUAUAUCUACUAUACAUAUUUUUGGUGUCAACAACAGAGGAUUGAGCAUCA
B10: chr3:186789481:186789582:+|3pUTR|ENSG00000156976|msi1_unk|FALSE|overlapping (ssRNA)
RNA: GGGAGUUCUACAGUCCGACGAUCUUGGGGUGGGUAUAAAAGAUGGGGUCUGUAAAAUCUUUCUUUCUUAGAAAUUUAUUUCCUAGUUCUGUAGAAAUGGUUGUAUUAGAUGUUCUCUAUCAUUUAAUAAUAUACUUGUGGACUCAACAGAGGAUUGAGCAUCA
B11: chr12:2800410:2800520:+|CDS|ENSG00000004478|unk|FALSE|unique (ssRNA)
RNA: GGGAGUUCUACAGUCCGACGAUCAAAUACAAGCAAGCUUUACUACAGUAUAAGAAGAUCGUGUCUUGGCUGGAAUAUGAGUCUAGUUUUUCCAAUGAGGAAGCACAGAAAGCACAGGCCCUUCGACUGGCCUCUCACCUCAACCAACAGAGGAUUGAGCAUCA
B12: chr3:66417149:66417250:-|CDS|ENSG00000144749|msi1|total|mutant (ssRNA)
RNA: GGGAGUUCUACAGUCCGACGAUCCAACAAGAUUCGCAGCGUGGAGGGGAGCCAGCUGAAGGCCUACCUUUCCUCCGAAGUGUCCGAUCUGAGUUUGAACAACAUCACGGAAGUGCGGAACACCUGCUUUCCACACGGACCGCCCAACAGAGGAUUGAGCAUCA
B13: chr5:97028609:97028710:+|3pUTR|ENSG00000113441|msi1|total|mutant (ssRNA)
RNA: GGGAGUUCUACAGUCCGACGAUCUUGCAAAAGCCAAGGUAAAGCCAGGAUCGCUGCCAAGUUGUUUGCACUCUUUGGAGUUCCCGUCCGCUCAGGGCCUGACUGUAUUUUUCAUCCAUCUUUUCUGAAGUGUCUUUGGGCAGUCAACAGAGGAUUGAGCAUCA
B14: chr20:25296659:25296760:+|3pUTR|ENSG00000100994|msi1|total|mutant (ssRNA)
RNA: GGGAGUUCUACAGUCCGACGAUCUGGGGGUCAGGGUGGUUUUGAGAGAGCAGGGUAAGGAAGGAAUGUGCCCGAAGUGCUCCCCGUUUCUUGUAAAGGAAGCCAGAGUUGACAGUACAAAGGGUCGUGGCCAGCCCUGCAGCUCAACAGAGGAUUGAGCAUCA
B15: chr4:67617988:67618115:-|3pUTR|ENSG00000033178|unk|FALSE|unique (ssRNA)
RNA: GGGAGUUCUACAGUCCGACGAUCAAAUGUAGAAUGUUAAAAAUUAUUGCUAGGGUAGUCUUUUUUUUUUCCAGAAACCUAAUUAGGGUAUUAAAUUUUGUGUUUUUUUUGUUUUUUUUUUUUAAACAGAAGCAUGUUAUUUCACAACAGAGGAUUGAGCAUCA
B16: ENSG00000133640:stop:overlap|stop_codon|ENSG00000133640|stop_codon|NA|stop_codon (ssRNA)
RNA: GGGAGUUCUACAGUCCGACGAUCAGGCACACAGACACUCAGCAGGAUCUUCAAGUAAGUUGUGGUUUCCUUCAAAAUUAAUUUAGAAAUCACAAACGAAUUGAUGGAACCUAAUGCCAACAAGCAUUCUUUUUCAGAUAGGGGCAACAGAGGAUUGAGCAUCA
B17: ENSG00000083457:stop:overlap|stop_codon|ENSG00000083457|stop_codon|NA|stop_codon (ssRNA)
RNA: GGGAGUUCUACAGUCCGACGAUCACUUGGAGAGCAUCAGGAAGGCCCAGCUGAAAUCAGAGAAUCUGCUCGAAGAAGAGAAUUAGGACCUGCUAUCCACUGGGAGAGGCUAUCAGCCAGUCCUGGGACUUGGAGACCCAGCAUCAACAGAGGAUUGAGCAUCA
B18: chr5:154419581:154419682:+|3pUTR|ENSG00000164574|msi1|total|mutant (ssRNA)
RNA: GGGAGUUCUACAGUCCGACGAUCAAAGGGAUGGGUGUGUCCUCUGAGCACUCUGGCAUUUGUCAUUGCUGAGCCCAUAUCAGCCGGUCCUGGGACUUGACAAAGUAUGUGGGAGGGGAAGGAAGGACAGAACUUGACUGGCUCCAACAGAGGAUUGAGCAUCA
B19: chr7:41961162:41961264:-|3pUTR|ENSG00000106571|unk|FALSE|bound_elsewhere (ssRNA)
RNA: GGGAGUUCUACAGUCCGACGAUCCCCUUGUGUAUCCUGCAGACAUGUAAAAUAAAAUACAAGUUCAUUUUUUUCACCUUUUUUAGAUUUUUUUAAAAAAUAAAAUGUGUAAUCCUUUUUUUAAAAGAAACACAUGUAAAUACACAACAGAGGAUUGAGCAUCA
B20: chr1:42278343:42278454:-|CDS|ENSG00000198815|unk|FALSE|bound_elsewhere (ssRNA)
RNA: GGGAGUUCUACAGUCCGACGAUCAAAAAGAAAAUGACUUUAAGUGAAAUUUAUCAGUGGAUUUGUGAUAACUUCCCAUAUUAUAGAGAGGCUGGCAGUGGUUGGAAGGUAAGGAUUUUAUUUAAAUUAUUACUUUUAUGAAGUCAACAGAGGAUUGAGCAUCA
B21: ENSG00000070961:be:win_2201|CDS|ENSG00000070961|bound_else_gene|NA|bound_elsewhere_windowed (ssRNA)
RNA: GGGAGUUCUACAGUCCGACGAUCUAGAAGGUAAAGAUUUUAACAGAAGAAUACGAAAUGAAAAAGGAGAGAUUGAGCAAGAGAGGAUAGACAAGAUUUGGCCAAAACUUCGAGUACUUGCAAGAUCAUCUCCUACUGAUAAGCCAACAGAGGAUUGAGCAUCA
B22: chr11:46542767:46542868:-|CDS|ENSG00000110497|msi1|FALSE|unique (ssRNA)
RNA: GGGAGUUCUACAGUCCGACGAUCAACACGCUCCGCAACCUCAGUCUGGGUCCUACCCGCCGCUCUUUGGGAGGGCCUCUGUCUAGCCACCCUUCUAGGUAUCACCGAGAAAUAGCUCCUGGGUUGACAGGAUCUGAGUGGACCCAACAGAGGAUUGAGCAUCA

Some of the results follow.

For this assay, the target named is T1, UNK ZnF1-6 (called full-length). Put plainly: nsRBNS (natural sequence RNA bind-n-seq); RBNS binding buffer (assumed for nsRBNS): 25 mM Tris pH 7.5, 150 mM KCl, 3 mM MgCl2, 0.01% Triton X-100, 500 ug/ml BSA, 20 U/ml SUPERase-In, 4 C; UNK is unkempt and MSI1 is Musashi-1; names of the RNAs are library labels; protein concentration not given here; high values mean tight binding.
For B1, the binding signal stood at 0.653 enrichment R. For the molecule B2, the binding signal was found to be 0.799 enrichment R. With B3 the figure was 0.514 enrichment R; with B4, 0.533 enrichment R; with B5, 6.4 enrichment R. In the case of B6 it was 0.798 enrichment R; in that of B7, 0.376 enrichment R. In the case of B8 it was 0.68 enrichment R; in that of B9, 0.543 enrichment R. Regarding B10, the binding signal is 5.04 enrichment R. Consider B11, for which the binding signal worked out at 0.654 enrichment R. With B12 the figure was 0.568 enrichment R; with B13, 0.508 enrichment R; with B14, 1.27 enrichment R. Turning to B15, the binding signal came to 28.1 enrichment R. With B16 the figure was 0.515 enrichment R. The molecule B17 returned a binding signal of 1.06 enrichment R.

B18 registered a binding signal of 0.858 enrichment R. With B19 the figure was 2.99 enrichment R; with B20, 3.38 enrichment R; with B21, 0.581 enrichment R.

Molecule B22 displayed a binding signal of 0.989 enrichment R.
